Biological target: T1, human PKC-δ (protein kinase C delta), wild type, expressed in HEK293A cells (human, UniProt Q05655)
T1 construct: Present in cell lysates (pull-down and co-immunoprecipitation); also called wt-PKC-δ; pcDNA3-PKC-δ
Test: GST pull-down from lysate of 293A cells overexpressing PKC-δ, blot with anti-PKC-δ
Description: GST-hBVR stably binds to PKC-δ as shown in the GST pull-down assay of FIG. 2A. Lysate (1 mg protein) prepared from 293A cells overexpressing PKC-δ was subjected to the GST-pull-down assay using GST-hBVR (10 μg/ml) or GST alone. At the indicated times, the GSH-agarose bound fraction was collected, washed, and separated on SDS-PAGE together with PKC-δ and GST-hBVR standards (ST). Proteins in the cell were transferred to a nitrocellulose membrane, which was probed sequentially with anti-PKC-δ, and anti-hBVR antibodies. hBVR and PKC-δ co-immunoprecipitate as shown in the immunoblot of FIG. 2B. HEK-293A cells were transfected with PKC-δ and HA-tagged hBVR, and starved and treated with PMA for 15 minutes. Cell lysates were immunoprecipitated with anti-HA antibodies and blotted onto nitrocellulose. […] The membrane was sequentially probed with anti-PKC-δ and anti-hBVR antibodies. The immunofluorescence cell images of FIG. 2C depict hBVR and PKC-δ co-localization. Cells co-expressing pEGFP-hBVR and pDs2-red-PKC-δ were grown in chamber slides. […]
Cell Culture, infection, transfection, GST pull-down and co-immunoprecipitation: HEK 293A cells were grown in Dulbecco's Modified Eagle Medium (Invitrogen) containing 10% fetal bovine serum and 1% penicillin-G/streptomycin for 24 h or until the cells reached 70% confluency. […] Western blotting determined overexpression of hBVR or PKC-δ. […]

T1 sequence (Q05655 whole entry, stated change not applied): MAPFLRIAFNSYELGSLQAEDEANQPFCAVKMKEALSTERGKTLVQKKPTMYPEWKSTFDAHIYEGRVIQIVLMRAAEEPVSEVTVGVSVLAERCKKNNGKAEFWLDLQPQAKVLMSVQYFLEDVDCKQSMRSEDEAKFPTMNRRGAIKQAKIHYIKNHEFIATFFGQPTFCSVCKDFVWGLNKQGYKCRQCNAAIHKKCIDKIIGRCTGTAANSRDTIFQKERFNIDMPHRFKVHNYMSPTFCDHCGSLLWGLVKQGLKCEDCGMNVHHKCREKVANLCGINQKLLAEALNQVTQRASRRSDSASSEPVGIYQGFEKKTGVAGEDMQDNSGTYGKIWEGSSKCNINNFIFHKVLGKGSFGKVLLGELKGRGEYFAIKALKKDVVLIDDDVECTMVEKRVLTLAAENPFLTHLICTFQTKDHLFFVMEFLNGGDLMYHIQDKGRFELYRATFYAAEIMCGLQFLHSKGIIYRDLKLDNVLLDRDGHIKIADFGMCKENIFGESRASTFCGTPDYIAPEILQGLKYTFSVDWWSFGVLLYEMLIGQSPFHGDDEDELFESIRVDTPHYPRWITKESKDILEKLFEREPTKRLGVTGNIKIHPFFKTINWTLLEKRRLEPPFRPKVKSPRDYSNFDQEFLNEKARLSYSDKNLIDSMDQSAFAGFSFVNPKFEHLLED

B1: GST alone (other)
chain: not shown
notes: Negative control of the GST pull-down
B1: no binding (tested: 10 µg GST on GSH-agarose beads).

— patent publication US20110217279A1 (UNIVERSITY OF ROCHESTER, published 2011)
